According to paper PMC4773433, “The Bub1–Plk1 kinase complex promotes spindle checkpoint signalling through Cdc20 phosphorylation” (Nature Communications, 2016):

Key:
His6-Cdc20^ΔN60 WT = target: T1, His6-Cdc20^ΔN60 WT (human, UniProt Q12834); test: pull-down; purified His6–Cdc20^ΔN60 WT or S92E immobilised on Ni-NTA beads, incubated with BubR1N and Mad2, 1 h at room temperature, five washes, immunoblotting; conditions: both partners purified
T1 construct: Cdc20, human, residues 61-499 (Cdc20^ΔN60); also called Cdc20 WT; recombinant Cdc20; source: Sf9, purified (Ni-NTA)

His6-Cdc20^ΔN60 S92E = target: T2, His6-Cdc20^ΔN60 S92E (human, UniProt Q12834, S92E); test: as above; conditions: both partners purified
His6-Cdc20^ΔN60 S92E, sequence (Q12834 61-499 S92E): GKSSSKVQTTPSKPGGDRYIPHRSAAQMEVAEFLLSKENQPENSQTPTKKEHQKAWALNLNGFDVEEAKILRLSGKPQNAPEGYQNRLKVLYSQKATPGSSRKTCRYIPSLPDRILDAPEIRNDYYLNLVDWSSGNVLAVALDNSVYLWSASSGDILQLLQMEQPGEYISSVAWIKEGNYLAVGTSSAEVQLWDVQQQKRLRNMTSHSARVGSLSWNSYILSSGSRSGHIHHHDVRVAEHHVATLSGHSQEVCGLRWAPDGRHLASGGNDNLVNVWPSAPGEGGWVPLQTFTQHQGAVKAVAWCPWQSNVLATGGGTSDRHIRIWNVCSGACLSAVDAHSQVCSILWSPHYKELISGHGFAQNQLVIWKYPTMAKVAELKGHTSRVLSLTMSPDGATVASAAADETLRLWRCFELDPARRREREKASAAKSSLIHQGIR
T2 construct: Cdc20, human, residues 61-499 (Cdc20^ΔN60), phospho-mimicking S92E; also called Cdc20 S92E; source: Sf9, purified (Ni-NTA)

His6-Cdc20^ΔN60 WT, sequence (Q12834 61-499, stated change not applied): as the sequence (Q12834 61-499 S92E) above, with E32S counted along it

B1: recombinant human Mad2 (natural protein)
chain: not shown
notes: Mad2, human; the coding region was cloned into pQE30 with a TEV cleavage site; source: bacteria (pQE30), purified (Ni-NTA, TEV, Mono-Q, Superdex-75)
- binding result (His6-Cdc20^ΔN60 WT): binds
- binding result (His6-Cdc20^ΔN60 S92E): binds
